Test results from PubChem BioAssay AID1346428 (National Center for Advancing Translational Sciences (NCATS), 2018).
Out of some 48,000 compounds screened, about 1,200 (2.5%) were called active. Another 2% or so got no clear call; they are omitted.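 The calls were made as follows: active = activation of at least 60% and not above a set upper limit (about 1 call in 100 departs from these limits); inconclusive = activation of 40% to 60%, or above that upper limit; inactive = activation under 40%.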 The list shows a part of the results.

Molecular target: Probable G-protein coupled receptor 32 (Homo sapiens) (UniProt O75388)
Chain of UniProt O75388 (O75388 whole entry, looked up): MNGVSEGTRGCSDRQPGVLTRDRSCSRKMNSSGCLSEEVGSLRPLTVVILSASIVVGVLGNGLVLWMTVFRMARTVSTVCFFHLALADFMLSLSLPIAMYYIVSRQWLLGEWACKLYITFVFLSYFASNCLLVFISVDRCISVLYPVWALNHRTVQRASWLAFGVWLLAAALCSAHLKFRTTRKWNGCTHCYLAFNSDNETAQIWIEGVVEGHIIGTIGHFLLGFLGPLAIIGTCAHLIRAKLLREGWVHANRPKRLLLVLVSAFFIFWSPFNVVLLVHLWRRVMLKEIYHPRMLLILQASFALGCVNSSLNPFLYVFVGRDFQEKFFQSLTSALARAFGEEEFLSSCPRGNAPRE
Test: qHTS for Agonists of Human Resolvin D1 Receptor DRV1; also: 0% is about no effect
Conditions: CHO-K1 GPR32 beta-arrestin PathHunter luminescence, 90 min; at 76.9 µM; hits give high values; zero percent set by DMSO-only wells
Procedure, shortened: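 Step 1: seed CHO-K1 GPR32 beta-arrestin cells, 2,500/well, overnight at 37 °C. Step 2: add compounds, 90 min at 37 °C. Step 3: detection reagent, 1 h ambient, then luminescence.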

activation, inactive:
CCN(CC)C(=O)Cn1c(=O)cc(C)c2c(C)nn(-c3ccc(C)cc3)c21 38.1%
COc1ccc(-c2cc(-c3ccccc3)nc3c2COc2ccc(F)cc2-3)cc1 7.72%
CC(C)c1nn2c(=O)cc(COC(=O)c3ccc(NC(=O)C4CCCCC4)cc3)nc2s1 -11%
Cc1ccc(CSc2ncc(Cl)c(C(=O)NCc3ccccc3)n2)cc1 -28.2%
Cc1ccc(S(=O)(=O)N2CCCc3cc(NS(=O)(=O)c4cc(C)ccc4C)ccc32)cc1 -16.6%
COc1ccc2[nH]c3c(c2c1)CCN(C(=O)c1cccc(Cl)c1)C3c1ccc(F)cc1 (stereo not drawn) -1.79%
CCOc1ccc(-c2c(C)nn3c(C)c(C(=O)NCCc4ccc(Cl)cc4)cnc23)cc1OCC -0.837%
COC(=O)c1ccccc1NC(=O)c1cc2cc(C)ccc2n1C -0.33%
O=C(Cn1c(=O)n(-c2ccc(Cl)cc2)c(=O)c2sc3ccccc3c21)NC1CCCC1 29.5%
Cc1ccc(S(=O)(=O)Cc2ccc(C(=O)N3CCN(c4cccc(Cl)c4)CC3)o2)cc1 46.7%
Cc1ccccc1OCC(=O)Nc1cccc(C(=O)OCc2cc(=O)n3c(C)csc3n2)c1 -28.1%
CCc1cccc(NC(=O)C2CCC(CNS(=O)(=O)c3ccc(Br)s3)CC2)c1 (stereo not drawn) 2.3%
Cc1ccc(NC(=O)c2cc(S(=O)(=O)N3CCc4ccccc43)cn2C)c(Cl)c1 -3.03%
CCC1=Nc2cc(C(=O)NCCN(CC)CC)ccc2Sc2ccccc21 10.5%
CCc1nc2cccnc2n1-c1ccc(CC(=O)Nc2cccc(C)c2C)cc1 -12.8%
CCc1ccc(-n2nc(CO)c(C(=O)NCCCc3ccccc3)n2)cc1 -7.71%
Cc1ccc(C)c(S(=O)(=O)c2nnn3c2nc(NC2CCCCC2)c2sccc23)c1 -19.7%
N#C/C(=C\c1ccc(O)c(O)c1)C(=O)NCCCNC(=O)/C(C#N)=C/c1ccc(O)c(O)c1 -32.1%
O=C(NCCc1ccccc1)C1CCC(CNS(=O)(=O)c2ccc(Cl)cc2)CC1 (stereo not drawn) -11.9%
Cc1ccc(C)c(N2CCN(C(=O)NCc3noc4ccc(C)cc34)CC2)c1 -14.3%
Cc1ccccc1Cn1c2ccccc2c2cnn(CC(=O)NCc3ccccn3)c(=O)c21 26.1%
CCSc1ccccc1C(=O)Nc1ccc(-c2nc3ccccc3s2)c(O)c1 -2.62%
CCOc1ccc(C(=O)NC2CC(=O)N(c3ccc(C)cc3)C2)cc1OCC (stereo not drawn) -1.04%
